# Results taken from the supplement of paper PMC5499739.
# Over roughly 16,000 sequences, “Z-score” has its median near -0.37; the highest 2% begin near 3.1. Some of the results follow.
# Tested on: RBM10 RRM1-ZnF-RRM2 (GST-tagged construct)
# Experiment: RNAcompete 7-mer binding Z-score; higher = stronger binding preference
# In short: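 Each heptamer motif was given a one-sided Z-score for enrichment across the probes that contained it. GST-tagged RBM10 constructs (20 pmol) were combined with 1.5 nmol of a designed pool of 241 399 RNAs of up to 41 nt, transcribed from microarray-derived DNA templates. Binding took place in 1 ml Hepes pH 7.8 buffer containing KCl, NaCl, glycerol, DTT, BSA and glutathione Sepharose beads for 30 min at 4°C. After four 2-min washes at 4°C, bound RNA was identified by microarray hybridisation.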
row,Sequence,RNAcompete 7-mer binding Z-score
1,UGUUUGG,0.279
2,CGACUUG,-0.668
3,GAGGGAG,3.04
4,CCGGAGC,-0.0561
5,ACAAUCA,-0.311
6,AGUUAGG,2.48
7,UGACAGG,2.26
8,AAUUAUC,-0.653
9,CUAGGUA,0.41
10,UGCAGUU,-0.256
11,AUACCGA,-0.398
12,AAGACCG,-0.344
13,ACCCGCA,-0.81
14,UGUCAGA,-0.402
15,CUGCCAG,-0.606
16,AUGCCGA,-0.686
17,CGGUCGG,0.68
18,GCAACGG,1.44
19,AACGGGA,3.38
20,CUAAAAA,-0.526
21,AAACGCU,-0.584
22,UAUUGAG,0.0349
23,CCGCAUC,-0.897

row,Sequence,RNAcompete 7-mer binding Z-score
1,GAUUAGG,2.76
2,CGACUGC,-0.657
3,CGUGUGC,-0.111
4,AAUCAAU,-0.0561
5,UGGUGAU,0.727
6,AAUACCG,-0.395
7,CUGAAUU,-0.617
8,CCAUGGA,0.359
9,CCUGACG,-0.592
10,CCUUCCA,-0.661
11,UGCCUCA,-0.817
12,UGCGCAU,-0.176
13,AUUUGGG,1.77
14,GGGUUUU,1.9
15,GUUCCGC,-0.639
16,AGGAGCA,1.59
17,GGAGCUC,0.126
18,GAGAUGC,0.421
19,AUCGGAA,0.519
20,AGAUAUA,0.0204
21,AUACGCU,-0.497
22,CUUGAUU,-0.774
23,CACAACA,-0.318

row,Sequence,RNAcompete 7-mer binding Z-score
1,GAAACUG,-0.0998
2,GGCUUAA,-0.329
3,AUCAUGG,0.865
4,UCCCCCA,-0.38
5,CAAGUGA,0.228
6,CCGUCCA,-0.704
7,GCGUCGG,0.884
8,UUAGGUC,-0.118
9,CGCUGGA,-0.027
10,CUCCUGA,-0.806
11,GGACUUC,-0.271
12,UGGGUCC,1.2
13,AUGUCUU,-0.806
14,AUCCUGG,-0.679
15,GUCGGAC,0.228
16,GAUCUGU,-0.551
17,UCUACAG,-0.759
18,GAGGCAG,1.68
19,CGUUUCU,-0.77
20,CAGUGGU,1.11
21,GGCGGUC,0.869
22,GAGGAUA,2
23,UCAAAUG,-0.384

row,Sequence,RNAcompete 7-mer binding Z-score
1,GACCAUC,-0.846
2,AAUUUAU,-0.551
3,AUUUGGC,-0.344
4,GCUCUAC,-0.868
5,CGAAGUG,1.1
6,AUGGCAU,0.803
7,GGUCAAG,1.05
8,AGGCGCC,-0.435
9,UGUGAUG,0.315
10,AGAACAA,0.0422
11,UGAGGAA,1.67
12,AGAGGGU,2.21
13,CUGUAUU,-0.737
14,AAACGAC,-0.409
15,CCAGGCU,-0.533
16,GAUGCUG,-0.169
17,CAAAUGC,-0.643
18,GUGUGUC,-0.122
19,CGACAAA,-0.439
20,CCAAUAU,-0.664
21,CGGUAGG,2.15
22,UGUCUCG,-0.639
23,CAGAGAC,0.0677

row,Sequence,RNAcompete 7-mer binding Z-score
1,AUUGUCG,-0.402
2,GGUCAUA,0.235
3,GAUUAUC,-0.464
4,UUUAACG,-0.646
5,UUACCUA,-0.723
6,AGCCAUA,-0.533
7,GGAUCAA,1.19
8,UCCAAGG,0.141
9,AUCAUUU,-0.843
10,UGUCAUC,-0.672
11,CUCGCGG,-0.0816
12,UGUUGCU,-0.741
13,CGUCUUC,-0.668
14,AGAAUCG,-0.0197
15,UAUUAAG,-0.446
16,GCCUACU,-0.945
17,GCUGGGU,1.78
18,UAGGGUA,4.16
19,GGAGGUG,3.64
20,ACAAACG,0.221
21,AUGUAGA,0.243
22,CCGUCAU,-0.741
23,GCAAUUU,-0.643

row,Sequence,RNAcompete 7-mer binding Z-score
1,GUGUAAG,1.28
2,GCUGUAG,-0.151
3,CACCCGG,-0.595
4,UCCGGAG,-0.0343
5,AUUAUGA,-0.136
6,CUGGCGC,-0.202
7,UGUUCAA,-0.795
8,CAGAACC,-0.555
9,UGUUGUU,-0.286
10,CGUUGCU,-0.65
11,GCCUUCG,-0.905
12,GCGUUGC,-0.293
13,CUCUAGC,-0.956
14,UGAUACC,-0.377
15,CACCAGA,-0.5
16,CGUCGCG,-0.0816
17,GGCCCCA,-0.508
18,CGGAUGU,0.778
19,UAUCUUA,-0.741
20,CUACCAA,-0.548
21,CGACUAA,-0.686
22,GUGUGGU,1.87
23,GUAGAUA,0.548

row,Sequence,RNAcompete 7-mer binding Z-score
1,AGAUGAG,1.48
2,UCCACUA,-0.668
3,UAGCCAC,-0.624
4,AGCACGA,-0.0124
5,GGCUCCA,-0.515
6,GUCUACU,-0.635
7,ACAGGGG,3.19
8,CAGCUCA,-0.795
9,GGCACGC,0.0604
10,AACAAGC,-0.176
11,GGUAGUC,0.989
12,GUGUUAU,-0.198
13,CACCAAC,-0.57
14,GGCCAAG,0.199
15,ACAGAAC,-0.435
16,UAAUACA,-0.391
17,AUCUGAU,-0.766
18,AUGAUGG,2.5
19,UUGUGGC,0.0532
20,GACGGCG,0.836
21,CCGCUUG,-0.832
22,GGGUCAU,1.37
23,GGUGGGG,4.34

row,Sequence,RNAcompete 7-mer binding Z-score
1,CACACUC,-0.792
2,GAGCUGC,-0.216
3,GGAUCCG,0.589
4,CUUGAAA,-0.719
5,GGAACAU,0.527
6,AAUGUUA,-0.216
7,CCGUCUG,-0.806
8,CCCUAAG,-0.515
9,UGUACUA,-0.573
10,CGGUGAU,0.723
11,AAAGAGG,1.49
12,CAAACGC,-0.402
13,AACGACG,-0.0743
14,GAUAUAG,0.734
15,CCUCCAU,-0.916
16,GGGGAUU,2.36
17,CUGCGUC,-0.657
18,ACUCUAU,-0.85
19,CGUAUGC,-0.49
20,CUCGGCA,-0.65
21,UUGGGAA,1.92
22,UCCAUAU,-0.599
